From the supplement of paper PMC12632987
Whole data set: some 1,800 sequences, median “median log2 fold change of GCK-ALFA target abundance (FLAG IP / Myc IP barcode read proportion)” near 0.14, cut for the lowest 2% near -0.84. The list shows a part of the results.

T1: TRAF2, Q12933
T1 chain: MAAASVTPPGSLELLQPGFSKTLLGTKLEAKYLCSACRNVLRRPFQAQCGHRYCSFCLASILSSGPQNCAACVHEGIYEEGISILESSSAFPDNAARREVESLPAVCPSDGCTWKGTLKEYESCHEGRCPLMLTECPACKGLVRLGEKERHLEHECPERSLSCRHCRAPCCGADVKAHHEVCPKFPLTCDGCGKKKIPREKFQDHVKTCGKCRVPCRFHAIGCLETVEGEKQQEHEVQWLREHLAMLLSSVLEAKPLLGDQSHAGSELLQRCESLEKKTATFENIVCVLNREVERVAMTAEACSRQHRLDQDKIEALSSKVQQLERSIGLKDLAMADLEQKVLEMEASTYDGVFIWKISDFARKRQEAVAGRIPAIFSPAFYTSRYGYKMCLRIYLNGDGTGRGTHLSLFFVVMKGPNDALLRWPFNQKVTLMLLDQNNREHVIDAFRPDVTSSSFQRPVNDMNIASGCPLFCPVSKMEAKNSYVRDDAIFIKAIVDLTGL

B1: traf2_out_3_77_2276 (protein)
chain: SAEREAARAALDEATTAAIASLAVLAINRPEKAEKYREMAARLHRAAAVAKEAGAEAEFLPLVEALLKAAKALNDGDEEAEKKIEELLAEIEAKAAALRA
B2: traf2_out_12_50_981 (protein)
chain: SEEEREREENERLAALGDEAIDRADAILAETGGDPAAAFARIKAEAAADPSQARFLKVVARVLRNKFLRAGADPATVGALADDTLAYLDEIIEKKVAPKP
B3: traf2_out_11_155_768 (protein)
chain: EEKLKINQEFVDKVMEIRDKAIEEIKNLILNDESLTEEEKEKLLSILDKYESLGLRSMAEELIREAKSLGHEELAKKIKEILEKAQKEMSKIAIEAEKKI
B4: traf2_out_5_63_2344 (protein)
chain: SEREELTALAREADRLVRELLEAAEAGDEERVEALLEEAVADPELARLVLGILTAEARAYRLSGTEPEQAKIAEELRERLAARAAARAAAEAAAAAAAAA
B5: traf2_out_18_3_1947 (protein)
chain: SEEKRKELSDKLDEIYDDHVDWLLARARELVARDPRFQPALDRIEAIRKQGPRPSTIANTLIDALLELGYEEEAKEVEDYYSEKAKKASEVIDEYEKAIK
B6: traf2_out_18_167_1888 (protein)
chain: SEELKKKLEELSDKIVLLSEIRRVLLLALEALKESREKAKEVIETGLSKLPESEEKKETLEVLKTKSPEEIRKFLEEKSEELQKKANEAYKEYEELRKKL
B7: traf2_out_8_174_2571 (protein)
chain: MDKEDLNLASKFLLEMEEKFEEIDELEEELKDKPLEERLKILKEEIKKIEKEMLEKIKEEKAKSSPETQKLLDRVAETVKIRAENRIKALELRAKAEKEK
B8: traf2_out_6_156_2397 (protein)
chain: MVEEILEETKKKIEELIKELSKASEEEKIKYINKIAGTVYRGLQRLREAGASVEEIEEFGKEILEFTEKKLKEEGIDEDTRNLILSSLQAVIDVAIEAAK
B9: traf2_out_13_95_1142 (protein)
chain: SKEVAEKIMEIADEMLEEKDKILKELEEELKKKGLLTPELKKALEEARNSSISTAIHILQELSKKYPEAKELLDKAIEELEKIKREAGRKVAEILKEEKE
B10: traf2_out_9_17_2604 (protein)
chain: AAARARRRERLLAAVREVLEELVERGYITEEQAEEILEKVRALLDAGASPDEVIAHTLGMIASILLTKSDLSLSEVNRVVGEAYRKLREGRRALEAEEAA
B11: traf2_out_11_155_739 (protein)
chain: EEKLKLNQEMNDKIMELFEKAREEADAILAEAAAAHPEHAAAIAALREATRGFSYRSYILSAIELFRELGLEEEAARLEALLEETQKKANEIVKETEKKL
B12: traf2_out_13_95_1215 (protein)
chain: SAEANEKLRKVSNDMLDEVEAIVDDLAAALAPHPETQPAMDAIRAALRRNGVNAAIAAIRAAAAAHPEVAAAFDAAAAALEAVRRKAGEEVAKILKEEEE
B13: traf2_out_17_178_1678 (protein)
chain: SKEEQRKKISEYTDKLIDLTERTGAEFLARAEAEGTLSPEELAALRAARRRGSNRTFLALARRAAPKLASAAEAAALLAAFEAEARELSKKIAEEYEKYE
B14: traf2_out_18_3_1908 (protein)
chain: KEEERKKLTDEIDKIEDEARARAARELARLAAEHPEVAAELAALRADLEAGGGAFGVLEALAELARRLGDEERAAEIEEFLRKKRKEFQKLVDEYEKLIE
B15: traf2_out_3_89_2297 (protein)
chain: SAAYEAKLKEAKENAERYVKGFEKSATYVAKEMIKDGHSLDTIKGVLNAARSALVEELRRSLKERGLSQEDIDEIVKKAKEELDKIVEKVVEEAEKERKA
B16: traf2_out_6_156_2407 (protein)
chain: MVEEIFEEAMKEIKELIKKLSEASEEKKISYISKIAGTFYRALQRLREAGASVEELEEFIKRMMEKIKEWLDEEGLPEDIKNLILSSLKAVGDVALEEAK
B17: traf2_out_20_3_2161 (protein)
chain: SELEKKAQEALDEAIALLAEAAKLADPETAKRLEALRARVEASRELSPDDRLVVLSEVRREVLALAEEARRAGREELAAVLEEAADALNKAMNLTYKIIE
B18: traf2_out_17_162_1625 (protein)
chain: SPYEEKKKKFQEELEKIRKKVKELKEKAKKIEELSKEELTDLLVEASEAKRKALELKEELEELKKKYNDEELDKLIKEAEKLAEEFQKIANLFYKKLLEK
B19: traf2_out_13_95_1174 (protein)
chain: EEEKTKKEREIASEAYDEREEVMTAYKEAVVALLGDPAAAALMDEVVRNMNEFTLEHATAQLVAAHPEKAAELQALRDEALAKMKEINKKYTEKLNEIEK
B20: traf2_out_9_108_2585 (protein)
chain: MSEEEKEEELFEKVKELVEEFLEEVDLSEELKEQLKAAIEQAEKLYEEGLKRTANILLAIDLASIAYEVGEEAVEWVLKRLKEIDERLYSAAERRVKLLK
B21: traf2_out_14_154_1268 (protein)
chain: DELWDELEYHSAMRRLYDSVVESLETMSREETKAHLDAATAIVTARVPEKAAEIKATAAEIKAKLDGSEEEVAALKEELKAKAEEHAKKAREAYEKILKE
B22: traf2_out_16_104_1385 (protein)
chain: SAATQAQFDAIIARLNAIADRANRLANRIYKLYEKASPEKKKELSDLLVEVSELRREALAAAIAAEQARAAGGDPAEAQAALDKLEARLAALEKRLAELE
B23: traf2_out_20_8_2271 (protein)
chain: SAEEKHLLEAADLVLDAAELAAAIVKRVLADERAPEIAAEVRAGLAVSVSIDDTPAQILERIAERVDEVLDRLEARTGDPRLRVAREEIRRALAERAAAA
B24: traf2_out_12_161_940 (protein)
chain: SSEHFQELSDVANKAFDKAQEIVDRVAEVSPALRPTFLAVARSLTLPVEEARAILDAAIAAHEAELTPEQLAEVRALGDELLAIQKEAQEEIKKIQEKYR

Target: T1, TRAF2, Q12933
Assay: median log2 fold change of GCK-ALFA target abundance (FLAG IP / Myc IP barcode read proportion) (log2 ratio); each designed protein is fused to an ALFA-tag nanobody in HEK293 cells to bring the named protein to FLAG-tagged glucokinase (GCK); Myc marks an untargeted standard; higher = target protein stabilised (more abundant)
Conditions: target protein: 3xFLAG-MCP-GCK-ALFA reporter; HEK293 landing pad (RPLP)
Method in brief: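 Sequencing of reverse-transcribed, amplified circular RNA barcodes from anti-FLAG and anti-Myc immunoprecipitates provided the readout for an ALFA-nanobody-fused binder library recombined into HEK293 landing-pad cells. Those cells were induced with 2 μg mL^−1 doxycycline, transfected with a plasmid expressing a FLAG-tagged target and a Myc-tagged standard, and lysed after 48 h. Target abundance is the per-binder median log2 ratio of FLAG to Myc barcode read proportions. Only barcodes at a proportion of ≥10^−7 in both replicates and binders with ≥3 barcodes per replicate were kept, with a 10^−6 pseudocount added before the two replicates were pooled.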

| Binder | median log2 fold change |
| --- | --- |
| B1 | 0.334 |
| B2 | 0.255 |
| B3 | 0.213 |
| B4 | -0.508 |
| B5 | -0.0326 |
| B6 | 0.24 |
| B7 | 0.0943 |
| B8 | 0.175 |
| B9 | -0.444 |
| B10 | -0.257 |
| B11 | 0.298 |
| B12 | 0.154 |
| B13 | -0.408 |
| B14 | 0.235 |
| B15 | -0.184 |
| B16 | 0.175 |
| B17 | 0.236 |
| B18 | -0.0863 |
| B19 | 0.311 |
| B20 | 0.0402 |
| B21 | -0.104 |
| B22 | 0.103 |
| B23 | -0.0343 |
| B24 | -1.56 |
